According to PubChem BioAssay AID485297 (National Center for Advancing Translational Sciences (NCATS), 2010):
Among all 320,000 compounds or so, about 9,100 (2.8%) were called active. Inconclusive results, whose numbers are uncertain, are shown with a selection of clear calls. Calls follow the shape of the dose curve; as a rule, active = well fitted activation curve with a large enough effect; inconclusive = small, poorly fitted or top-dose-only effect; inactive = no such curve, though single readings can be large or run the other way. No potency is given beside an inconclusive call; the fits are too rough.
Potency is read from the fitted curve at half-maximal effect; tags tell the direction and shape of the fitted curve.

Assay: qHTS Assay for Rab9 Promoter Activators; also: nearly all actives have a fitted effect of over 60% in size
Details: Huh7 Rab9 promoter-luciferase reporter, luminescence, 24 h; series mostly up to 9.22 µM
Method in brief: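 Using Huh7 cells stably transfected with Rab9 promoter–luciferase, compounds were incubated 24 h at 37 °C, 5% CO2; luciferase luminescence was read 10 min after reagent addition.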
With `Cc1csc(NC(=O)c2nc3nccc(C)n3n2)n1` the Potency was inconclusive [activator, partial curve]. For `CCOc1ccc(C(=O)Nc2nnc(SCC(=O)NCC3CCCO3)s2)cc1` (stereo not given), the Potency was inconclusive [activator, full curve, poor fit]. For `COc1ccc(Nc2cc(C)nc(N)n2)cc1`, the Potency was inconclusive [activator, single point]. In the case of `O=C1CNC(=O)N1c1ccc(Cl)cc1`, the Potency is reported as “inactive”. In the case of `NS(=O)(=O)c1ccc(CCNC(=O)c2ccc(NS(=O)(=O)c3ccc4[nH]c(=O)[nH]c4c3)cc2)cc1`, the Potency is reported as “inactive”. With `O=C(N/N=C/c1ccccn1)c1ccc(NC(=O)c2cccc([N+](=O)[O-])c2)cc1` the Potency was “inactive”. With `Nc1nc(Nc2ccccc2)sc1C(=O)c1ccccc1` the Potency was inconclusive [activator, partial curve]. With `Cc1occc1C(=O)N/N=C/c1cccs1` the Potency was inconclusive [activator, partial curve]. With `C/C(=N\NC(=O)c1nn(C)c(C)c1Br)c1cccc(NC(=O)c2ccoc2C)c1` the Potency was inconclusive [activator, single point]. In the case of `CCc1ccc(/C=N/NC(=O)c2cc(C)on2)s1`, the Potency is reported as inconclusive [activator, single point]. With `CC1(C)Cc2c(sc(NC(=O)c3ccco3)c2C#N)CO1` the Potency was active: 3160 nM. In the case of `CCOC(=O)C(=CN=C(N)Nc1nc2ccccc2o1)C(=O)OCC`, the Potency is reported as inconclusive [activator, partial curve]. In the case of `O=C(N[C@@H](Cc1c[nH]c2ccccc12)C(=O)NC1CC1)c1ccccc1Cl`, the Potency is reported as inconclusive [activator, single point]. For `C=CCS/C(=N\n1cnc2ccccc2c1=O)N1CCCCC1`, the Potency was inconclusive [activator, partial curve]. In the case of `CC1CCc2nc(NC(=O)C3COc4ccccc4O3)sc2C1` (stereo not given), the Potency is reported as inconclusive [activator, full curve]. With `O=C(Nc1cccnc1)c1cc(-c2ccc(Cl)cc2Cl)on1` the Potency was inconclusive [activator, single point]. For `CC1N(C)c2cc(NC(=O)c3ccco3)ccc2C1(C)C` (stereo not given), the Potency was active: 1000 nM. For `O=C(O)c1ccc(-c2nc3ccccc3s2)o1`, the Potency was inconclusive [activator, full curve, poor fit]. In the case of `COc1ccc(S(=O)(=O)N2CCOCC2)cc1NC(=O)CCNC(=O)c1ccc([N+](=O)[O-])cc1`, the Potency is reported as “inactive”. In the case of `COc1ccc(C(=O)NC(=S)NCC2CCCO2)cc1` (stereo not given), the Potency is reported as inconclusive [activator, single point].
